This is one part of the list. At the low end of the ranking the order means little.
target: SIX1 homeodomain (reference allele) (UniProt Q15475); assay: universal protein binding microarray; conditions: Universal all-10-mer PBM (8x60K, AMADID 030236), 300 nM GST-tagged protein, Alexa Fluor 488 anti-GST; buffer, salt, pH and temperature not stated; high values mean tight binding; most listed sequences are background and not binding sites; double strand, one strand shown

Sequence | binding signal [E-score]
ATTTGGGA | -0.127
ATAGATTC | 0.0494
GGAGACTA | -0.0757
GCCCATTA | -0.123
CGGATCCC | 0.399
CCGCAGAA | -0.291
AGATGCCC | 0.0608
GCCCCACA | -0.104
AAAGCTTC | -0.276
CTGATCTC | 0.312
AGGTAGCA | -0.0857
ATGGGTCG | 0.0494
ACCATATA | 0.274
ATCCAGGA | 0.141
AGGACTCC | -0.0709
CCGTCGGC | -0.179
GGCCCGTA | -0.0756
ATCATGAA | 0.052
CCTGGCCG | -0.184
TCGCAAGA | -0.0336
AAGCTATG | 0.0235
ATCACTCA | 0.335

Sequence | binding signal [E-score]
AGAGATGA | 0.0527
ACACCGAT | 0.362
GAGCTGGC | -0.208
CGCGTGGC | -0.148
CAACCACA | -0.142
CCATCACC | -0.00905
ACCAGCTC | 0.118
GAACTCTC | -0.322
CGTCCAGC | -0.239
ACCCGAAA | -0.119
AGTTAGGA | 0.0409
CTTCTTCA | -0.121
GACGCTGC | -0.314
CGATGAGA | 0.191
AAAGCCTA | -0.143
CCTATCTC | 0.227
AGTGCGAG | -0.12
CACCCTCC | 0.0223
CGCAACCA | -0.127
CGTTTCAC | -0.0955
AAAGGCAG | -0.112
AGTCTGAA | -0.183

Sequence | binding signal [E-score]
AGCAGTGC | -0.154
CACATCTA | 0.0201
CCAGCTGC | -0.1
AGTCGTAT | 0.221
AACTCTTC | 0.00153
AGCGTGTC | -0.017
CCAACTGG | -0.075
GACGTAGA | -0.148
ATAGGCGC | 0.0386
GCATTCAA | -0.0184
ATGTCCCC | -0.134
AAGTAATA | 0.111
AAAAGGAA | -0.078
AATTAGCC | -0.0433
ACAAGACC | -0.174
AGGAAACC | -0.15
AGTAGGAT | 0.202
GACCCTTA | -0.0114
AAAGCCTC | -0.223
GAGATACC | 0.441
CCCCAATC | 0.148
ATATTACG | 0.159

Sequence | binding signal [E-score]
CCAAGTTC | -0.216
GTCAATCA | -0.142
ACTAATTG | -0.033
ACCTCTCC | -0.00766
ACAGTCCC | -0.134
AGTAAGAG | -0.145
GACCATCC | -0.0836
CACAGTCG | -0.146
GTGCGTAA | -0.136
GAGGATAC | 0.403
ACATACTG | 0.06
AAAGCGTG | -0.256
ACGCGCTG | -0.164
AAGCGGAG | -0.128
CCATCAGG | -0.0931
AGTACTGC | -0.152
AAACTGCA | -0.227
ATACACGC | 0.328
AAGGATAC | 0.405
AGGGAGAT | 0.268
